Some of the results follow. The full chains were built here from the parent and the listed change. Values near 0.05 are background.
B1: TEV protease; numbered along this chain (parent)
chain: MGESLFKGPRDYNPISSSICHLTNESDGHTTSLYGIGFGPFIITNKHLFRRNNGTLVVQSLHGVFKVKDTTTLQQHLVDGRDMIIIRMPKDFPPFPQKLKFREPQREERICLVTTNFQTKSMSSMVSDTSCTFPSGDGIFWKHWIQTKDGQCGSPLVSTRDGFIVGIHSASNFTNTNNYFTSVPKNFMELLTNQEAQQWVSGWRLNADSVLWGGHKVFMVKPEEPFQPVKEATQL

Variants of: B1
Assay: raw area under fraction-flipped curve 0-4 h after induction (AUC4h, not background-subtracted), DNA-recorder readout of cleavage of the substrate (dimensionless); higher = more cleavage of the substrate by the protease variant
Settings: temperature: 34 °C; time window: 0-4 h after rhamnose induction
Procedure: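 In vivo DNA recorder in E. coli TOP10(DE3) ΔrhaA at 34 °C. Each TEVp single-site mutant (parent TEVp 0) is paired with a single-site variant of the 7-mer TEVs (canonical ENLYFQ|S). The substrate sits between flexible linkers in a Bxb1-sfGFP-TEVs-SsrA fusion, so cleavage stabilises Bxb1 and speeds flipping of a recombination array, read by NGS. The value is the raw area under the fraction-flipped curve over 0-4 h after rhamnose induction (AUC4h), with ≥20 reads per time point. It is not background-subtracted; inactive controls average about 0.047.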
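Note: Bxb1 expression induced with 0.2% (w/v) L-rhamnose at OD600 near 0.5, cultures sampled hourly, flipped fraction per protease–substrate barcode pair counted by paired-end Illumina sequencing.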

Variant	area with substrate ENAYFQS	area with substrate ENCYFQS	area with substrate ENDYFQS	area with substrate ENEYFQS	area with substrate ENFYFQS	area with substrate ENGYFQS	area with substrate ENHYFQS	area with substrate ENIYFQS	area with substrate ENNYFQS	area with substrate ENPYFQS	area with substrate ENQYFQS	area with substrate ENRYFQS	area with substrate ENSYFQS	area with substrate ENTYFQS	area with substrate ENVYFQS	area with substrate ENWYFQS	area with substrate ENYYFQS	area with substrate ENKYFQS	area with substrate ENMYFQS
N45V	0.0544	0.0585	0.0588	0.0631	0.0552	0.0559	0.0479	0.0595	0.0585	0.0508	0.0591	0.055	0.0661	0.0658	0.0669	0.059	0.0409		
K46P	0.0467	0.0647	0.0562	0.0508	0.0828	0.0518	0.0589	0.0677	0.0587		0.0526		0.0465		0.0652	0.0054	0.0583	0.0548	0.0552
H47D	0.0663	0.0604	0.0663				0.0568			0.0689	0.052	0.0556	0.0525		0.0669				0.0469
H47K	0.0613	0.0555	0.0673	0.0567	0.0596		0.0396	0.0649	0.0606	0.0706	0.059	0.0401	0.0503		0.0451			0.058	0.0519
H47L	0.0401	0.0492	0.0564	0.0671	0.0624		0.0435	0.0539	0.0747		0.0615		0.0821	0.0575	0.0704		0.0595		0.0522
H47N	0.0626	0.0643	0.0609	0.0696			0.0569	0.069	0.0522	0.0724	0.0823	0.0634	0.052		0.0604			0.0576	
H47Y	0.0641	0.057	0.0588	0.0504	0.0634	0.061	0.06		0.0688	0.053	0.0514		0.0711	0.0581	0.0695	0.0085	0.0581	0.0393	0.0929
F49G	0.0679	0.0523		0.0564	0.0584	0.0594	0.0633	0.0571	0.0675	0.0545	0.0549		0.0601	0.0532	0.0504	0.0447	0.0264	0.0683	0.06
F49K	0.0599	0.0613	0.0621	0.0657	0.0496	0.0414	0.06	0.0525	0.0457	0.0376	0.0554	0.0503	0.0609	0.0621			0.0697	0.063	0.0547
F49P	0.0504	0.0476	0.0615	0.0546	0.0511			0.058	0.0542	0.05	0.0532	0.0502	0.0605	0.0498	0.0529	0.0541	0.0652		0.0399
F49R	0.0583	0.0598	0.0761	0.0596	0.0633	0.0506	0.0822		0.0454	0.0516	0.051		0.0474		0.0678	0.0196			0.034
R51A	0.0605	0.0793	0.0659	0.0549					0.0646		0.069				0.0764	0.0687	0.0688		0.0755
G54H	0.0612		0.0623	0.0547	0.0665	0.0573	0.0639	0.0888	0.0628		0.0553	0.0522	0.0592	0.0558	0.0568		0.063		0.0567
G54L	0.0365	0.0592	0.0452	0.0558		0.0554	0.058	0.0698	0.0451	0.0572	0.0544	0.0548		0.0489	0.0526			0.0481	
G54R	0.0672	0.065	0.0623	0.0592	0.0491	0.0586	0.0478	0.0621	0.049	0.0645	0.0646	0.0587	0.0583	0.0528	0.0677	0.0407	0.0361	0.0626	0.0455
L56D	0.0508	0.0411	0.0506	0.0409	0.0322		0.0486		0.0449	0.0335	0.0431	0.0398	0.0443	0.0408	0.0524	0.0481	0.0261	0.0745	0.0581
L56V	0.0554		0.0608	0.0627		0.0586	0.0584			0.0499	0.0543	0.0594	0.0615		0.0574		0.0545		0.061
V57G	0.0621	0.0703	0.0873		0.0562	0.0592	0.0488	0.103	0.0394		0.0583		0.06	0.0653	0.0801	0.0362			0.0863
V57L	0.06	0.0738	0.0618	0.064		0.0795	0.0758		0.0629	0.0301	0.0602	0.0612	0.0618		0.0643				0.0916
V57W	0.0727	0.0906	0.0525	0.0491	0.0576	0.0667	0.0418		0.0619	0.0628	0.0658	0.0536	0.0525				0.069		
H62D	0.0651	0.06	0.0576	0.0547	0.0644	0.0604	0.0625		0.0485		0.0621	0.07		0.0651	0.0749			0.0623	0.064
H62F	0.0632	0.0584	0.0539	0.0627	0.0662	0.0595	0.057		0.0429		0.0472	0.0628	0.0601	0.0749	0.0591	0.0547	0.0642		0.0795
H62V	0.0639	0.0632	0.0401	0.0669	0.0538					0.054	0.0693		0.052		0.0656			0.0525	0.0803
G63Q	0.0632	0.0709	0.065	0.067	0.0429	0.0493	0.0501	0.106	0.056	0.0618	0.0559	0.042	0.049	0.0577	0.0604		0.0638	0.0577	0.0787
